# Experimental data from PMC6451091.
# This is one part of the list. For part of these data: At the low end of the ranking the order means little. For part of these data: Measured with an extract: partners may take part in the binding.
# Columns and labels:
# Conditions in all cases: 20 mM HEPES pH 7.9, 100 mM NaCl, 1 mM DTT, 0.2 mg/mL BSA, 0.02% Triton X-100, 2% milk, 0.4 mg/mL salmon testes DNA; 1 h; temperature not stated; high values mean tight binding; double strand, one strand shown; sequences stand for … in GCCTAGCAC…GTGCTAGGTCTTGATTCGCTTGACGCTGCTG
# PU.1 (IVT) = PU.1 (IVT) (UniProt P17947); assay: protein-binding microarray (PBM)
# [1] = target: PU.1 (endogenous, THP-1 nuclear extract) (UniProt P17947); assay: nuclear extract protein-binding microarray (nextPBM)
# [2] = target: T1, FLI1 (endogenous, THP-1 nuclear extract) (UniProt Q01543); assay: as above
# T1 sequence: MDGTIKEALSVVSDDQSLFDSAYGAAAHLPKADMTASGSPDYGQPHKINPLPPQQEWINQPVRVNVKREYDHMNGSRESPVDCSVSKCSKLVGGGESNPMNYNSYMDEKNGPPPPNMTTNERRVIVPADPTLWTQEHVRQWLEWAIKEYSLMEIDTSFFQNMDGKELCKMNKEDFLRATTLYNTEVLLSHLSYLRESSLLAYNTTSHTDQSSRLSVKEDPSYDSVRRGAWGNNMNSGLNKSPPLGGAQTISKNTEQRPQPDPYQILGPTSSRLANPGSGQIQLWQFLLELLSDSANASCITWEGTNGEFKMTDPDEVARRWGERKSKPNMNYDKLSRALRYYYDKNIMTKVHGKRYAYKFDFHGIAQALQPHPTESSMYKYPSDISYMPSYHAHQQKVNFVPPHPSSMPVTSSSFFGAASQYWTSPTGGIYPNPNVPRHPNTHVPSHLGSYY
Sequence,binding signal (PU.1 (IVT)) [z-score],binding signal [1] [z-score],binding signal [2] [z-score]
CAAGGAAGGAAGTGGTGAGA,2.33,2.32,2.15
CAAAAAGGGAAGTGGATTCT,6.79,7,2.93
TGAAAGAGGAAGTGCCCAGG,7.44,7.37,3.8
TAGAAGAGGAAGTGGCCAGC,5.83,6.6,3.24
CAAAGAGGGAAGTGGATGCT,4.55,4.93,1.84
AGAAAGAGGAAGCCGAGAGC,4.68,5.77,2.3
ACTTTAAGGAAGTGAGATAA,4.39,4.61,1.96
AAAAACAGGAAGTGGAGATG,7.69,7.45,5.3
AAGAAGAGGAAGTGGAGAGG,5.58,6.36,3.21
GAAAGGAGGAAGTGCAAAGA,5.7,6.47,2.79
GGAATAAGGAAGTGGCCAGT,5.59,6.35,2.54
AAAAAAATGAACTGGCTAGA,0.479,0.478,-0.386
TAAATGAGGAAGTGACAGCT,7.57,7.12,3.23
AAAAAAAGGAACTGGCTTGA,4.72,4.4,1.47
CGAATCAGGAAGTGCGCCCA,4.45,5.15,3.24
AAGAAGAGGAAGTCAGATCA,6.19,6.38,3.14
AGAAAGAGGAACTGGTTCCT,6.82,7.18,3.04
GATAACAGGAAGTCCTCTGT,4.94,5.45,4.66
AGGAAGTGGAAGTGGGAGGA,2.81,2.62,5.54
CAAAAAGGGAAGGGGATGCT,2.11,2.8,0.868

Sequence,binding signal (PU.1 (IVT)) [z-score],binding signal [1] [z-score],binding signal [2] [z-score]
AGAGAGGGGAAGTGTTTCAG,3.71,3.51,2.27
CAAAATGGGAAGTGAAGTCA,5.22,5.62,2.32
AAAATGGGGAAGTCTAAAAT,6.67,6.84,2.34
CAAATGAGGAACTGAGGCGG,5.34,6.33,1.59
CGAAAGGGGAAGTGTTAAAC,7.14,6.9,3.63
CAAAGGAGGAAGTGCTACAC,5.85,6.26,3.01
GCAGTAGGGAAGTGGAGCAT,3.12,2.76,1.29
AAAATGAGGAAATGTGACAT,5.19,4.29,2.02
CTGAAGGGGAAGTGGGCAGA,4.21,4.76,2.21
CTGGAGAGGAACTGAGTGCC,1.61,1.92,0.359
AGGAAGAGGAAGTGAACTAT,6.7,6.8,3.99
ACAGGAGGGAAGTGTGAAAT,2.15,1.99,1.26
CAGAAAAGGAAGTAAAGACA,3.84,3.63,2.08
GGAAAGAGGAAGTGAGGAAA,7.77,7.25,3.96
CTAAGAAGGAACTGGCCCTT,1.38,1.77,0.536
GAAAAGAGGAAGTCAAACTT,8.22,7.45,4.12
GACAACAGGAAGTCCCATAG,3.35,3.93,4.19
GGTGACAGGAAGTCCTGGGG,2.33,2.5,4.23
GTTTTGAGGAAGTGGAGGTG,6.11,6.44,2.64
TTTAGGAGGAACTGTGAGGT,2.26,1.95,0.824

Sequence,binding signal (PU.1 (IVT)) [z-score],binding signal [1] [z-score],binding signal [2] [z-score]
AAAAGCAGGAAGTGAAACAG,4.87,6.05,4.13
AAAATGAGGAAGTGAACAAA,8.02,7.3,3.51
TCAAAGAGGAAGTGTGTCTA,6.18,6.6,3.44
CAAAAAGGGGAGTGGATGCT,-0.32,-0.239,0.139
GAAAAGAGGAAATGGTCCTT,5.98,6.46,3.24
GGGAGGAGGAAGTGGGTCGG,4.31,4.66,2.72
ACAAAGGGGAAGTGCTAGGG,6.35,6.49,2.75
CAAAAGAGGAACTGCTGCTG,6.83,6.87,2.72
GAAAACCGGAAGTCCCATAG,6.38,6.75,6.71
AAAAGTAGGAAGTGATTCAA,5.17,4.84,2.42
GGAAAAGGGAAGTGGGAGGA,6.11,6.59,2.92
CAAAAAGAGAAGTGGATGCT,3.05,3.1,0.637
TAGAAGAGGAAATGAGAGGT,2.41,2.73,2.61
AGAAAGGGGAAGTGGGGACA,7.03,6.92,2.77
GAAAACAGGAAGTCCCTTAG,7.61,6.97,4.83
GAAATGAGGAAGTGTAAACA,7.49,7.1,3.19
AGATAGCGGAAGTGTTGAGC,5.84,6.16,4.32
GCTAAGAGGAAGTCAGGGAG,4.24,5.12,2.72
AAAATGAGGAAGTGAGATAT,8.11,7.24,4.26
GAAAAGAGGAAATGGGGAGT,5.14,5.72,3.06
